Source: PubChem BioAssay AID485294 (National Center for Advancing Translational Sciences (NCATS), 2010)
The whole screen tested about 370,000 compounds, of which about 150 (0.041%) were called active. This list was built around the results that the source calls inconclusive (neither active nor inactive); the mix of calls is not that of the screen. Calls follow the shape of the dose curve; as a rule, active = well fitted inhibition curve with a large enough effect; inconclusive = small, poorly fitted or top-dose-only effect; inactive = flat fitted curve, though single readings scatter. No potency is given beside an inconclusive call; the fits are too rough.

The molecules below were run against Beta-lactamase (Escherichia coli (strain K12)) (UniProt P00811) (assay: qHTS Inhibitors of AmpC Beta-Lactamase (assay with detergent)). Settings: AmpC hydrolysis of nitrocefin, absorbance 480 nm, 0.01% Triton; series mostly up to 114 µM.
Sequence of UniProt P00811 (P00811 whole entry, looked up): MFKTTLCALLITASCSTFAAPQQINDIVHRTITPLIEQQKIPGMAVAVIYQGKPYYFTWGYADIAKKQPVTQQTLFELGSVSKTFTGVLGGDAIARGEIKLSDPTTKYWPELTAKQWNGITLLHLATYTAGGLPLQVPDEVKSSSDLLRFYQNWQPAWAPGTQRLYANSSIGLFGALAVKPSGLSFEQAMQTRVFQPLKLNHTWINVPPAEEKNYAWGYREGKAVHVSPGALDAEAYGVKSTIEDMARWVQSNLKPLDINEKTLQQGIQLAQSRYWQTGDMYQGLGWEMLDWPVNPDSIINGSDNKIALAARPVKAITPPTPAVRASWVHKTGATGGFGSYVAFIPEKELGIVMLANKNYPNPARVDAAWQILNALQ
Summary of the method: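 20 mM phosphate pH 7.0 + 0.01% (detergent screen) or 0.0001% Triton X-100; 5.3 nM AmpC reagent; cpd preinc 15 min RT; nitrocefin (800 uM stock) to start; A480 q20 s × 4 min; Activity was normalised to no-enzyme and no-compound control wells.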
Also: nearly all actives have a fitted effect of over 25% in size.
Potency is read from the fitted curve at half-maximal effect; tags tell the direction and shape of the fitted curve.

Compound	Potency
CC1(C)CC(=O)c2sc(NC(=O)CN3CCCCC3)nc2C1	inconclusive [inhibitor, full curve, poor fit]
O=S1(=O)CCN(Cc2cccc(Cl)c2)CC1	inconclusive [inhibitor, partial curve]
O=C(NNc1cccc(Cl)n1)Nc1cccc(C(F)(F)F)c1	inconclusive [inhibitor, full curve, poor fit]
COc1ccc(C2C(C(=O)c3ccccc3)=C(C)Nc3nc4ccccc4n32)c(OC)c1 (stereo unspecified)	inconclusive [inhibitor, partial curve, poor fit]
COc1ccc(CCNC(=O)c2ccc3c(c2)SC2=NS(=O)(=O)CCN23)cc1	inconclusive [inhibitor, partial curve]
CCSc1nnc(NC(=O)CSc2nnc(CNC(=O)c3cc(OC)c(OC)c(OC)c3)o2)s1	inconclusive [inhibitor, single point]
CC1(C)C(c2ccccc2)=[N+]([O-])CN1O	inconclusive [inhibitor, partial curve, poor fit]
COc1ccc(Oc2cc(C)c3cccc(C)c3n2)cc1	inconclusive [inhibitor, full curve, poor fit]
CN1CCN(C(=O)/C=C/c2cccc(Cl)c2)CC1	inactive
Cc1ccc(N2C(=O)C3C(C2=O)C2C=CC3C23CC3)cc1 (stereo unspecified)	inconclusive [inhibitor, full curve, poor fit]
COC1=C(Nc2ccccc2)C(=O)c2ccccc2C1=O	inactive
Cc1nc(CNS(=O)(=O)c2ccc(Oc3ccccc3)cc2)cs1	inconclusive [inhibitor, partial curve]
Cc1ccccc1-c1nnc(NC(=O)c2cc3ccccc3oc2=O)s1	inactive
O=C1C=C(c2ccc(OC(F)(F)F)cc2)C[C@@H](c2ccc(Cl)cc2)C1	inactive
Cc1ccc(S(=O)(=O)N2CCC(=O)N(C(COC(=O)Nc3ccccc3)Cc3ccccc3)CC2)cc1 (stereo unspecified)	inconclusive [inhibitor, partial curve]
Cc1cccc(NC(=S)NCCSc2ccc(Cl)cc2)c1	inconclusive [inhibitor, partial curve]
Cc1cc(NS(=O)(=O)c2ccc(NC(=O)/C=C/c3ccccc3)cc2)no1	inconclusive [inhibitor, full curve, poor fit]
COc1ccc(Cl)cc1NC(=O)COC(=O)CCNC(C)=O	inconclusive [inhibitor, single point]
Cc1ccc2sc(N(CCCN(C)C)C(=O)c3ccc(Br)s3)nc2c1C	inconclusive [inhibitor, full curve]
C=CCNC(=S)N1CCN(CCN=CC2=C(O)CC(c3cccs3)CC2=O)CC1 (stereo unspecified)	inconclusive [inhibitor, full curve]
COc1ccc(CCNC(=O)Cc2ccc3c(c2)OCO3)cc1OC	inconclusive [inhibitor, single point]

Compound	Potency
CCOc1cc2nc3c4ccccc4n(C)c3nc2cc1OCC	inconclusive [inhibitor, full curve, poor fit]
Cc1oc(C(C)(C)C)cc1C(=O)NCC(=O)NCC(=O)O	inactive
CC(C)CCNC(=O)C1CCN(S(=O)(=O)c2ccc3c(c2)CCC(=O)N3)CC1	inconclusive [inhibitor, full curve, poor fit]
O=C(COc1ccc(Cl)cc1)NCCCNC(=O)c1cccnc1	inconclusive [inhibitor, single point]
CC(C)(C)OC(=O)N1CC=C2C(C#N)=C(N)C(C#N)(C#N)[C@H](c3cccnc3)[C@H]2C1	inconclusive [inhibitor, full curve]
Cc1ccc(S(=O)(=O)c2nc(-c3ccccc3F)oc2N2CC(C)OC(C)C2)cc1 (stereo unspecified)	inactive
COc1ccc(NC(=O)CN(C)C(=O)C2=COCCO2)cc1	inconclusive [inhibitor, partial curve, poor fit]
CC(=O)/C=C(\C)Nc1ccc(-c2cnc(-c3ccccc3)o2)cc1	inactive
O=C(Nc1ccccn1)c1ccco1	inactive
Cc1cc(C)n2nc(SCc3cc(=O)oc4cc(O)ccc34)nc2n1	inconclusive [inhibitor, single point]
COc1ccc(CC(CC(=O)O)C(=O)Nc2ccc(Cl)c(Cl)c2)cc1 (stereo unspecified)	inconclusive [inhibitor, partial curve]
Cc1cc(N(C)C)c(C#N)c(N2CCOCC2)n1	inconclusive [inhibitor, full curve]
COc1cccc(CN2C(=O)NC3(CCCCCC3)C2=O)c1	inconclusive [inhibitor, full curve, poor fit]
O=[N+]([O-])c1ccccc1NCCNS(=O)(=O)c1ccc(Cl)cc1	inactive
Cc1ccccc1NC(=O)Cn1cnc2c(oc3nc4c(cc32)COC(C)(C)C4)c1=O	inconclusive [inhibitor, full curve]
COc1ccc(OCC(O)Cn2c(=N)n(CCN3CCCCC3)c3ccccc32)cc1 (stereo unspecified)	inconclusive [inhibitor, full curve, poor fit]
Cc1ccc(N2C(=O)N3[C@H](c4ccc(F)cc4)[C@@H]4C(=O)N(C5CCCCC5)C(=O)[C@@H]4[C@]3(Cc3ccccc3)C2=O)cc1	inconclusive [inhibitor, full curve, poor fit]
CCCC1(C(=O)OC)NC(c2cccc(F)c2)C2C(=O)N(CC)C(=O)C21 (stereo unspecified)	inconclusive [inhibitor, full curve]
COc1ccc(NC(=O)c2sc(NC(=O)C3CC3)nc2C)cc1	inconclusive [inhibitor, full curve, poor fit]
CC1=C(C(=O)Nc2cccnc2)C(c2ccccn2)n2nnnc2N1 (stereo unspecified)	inconclusive [inhibitor, full curve, poor fit]
